From the supplement of paper PMC11417369
± gives the standard deviation of the averaged measurements. The list shows a part of the results.

These sequences were tested on PfAP2-EXP AP2 domain (GST-tagged) (assay: gcPBM binding intensity (ln(normalized median fluorescence intensity)); higher = stronger DNA binding).
In short: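 Using an Agilent 4 × 180k array, primer-extended double-stranded 36-bp intergenic genomic probes and negative controls were exposed for 1 h to GST-fused P. falciparum DNA-binding domains expressed in E. coli. Binding was carried out in 1× PBS with 1% milk, 0.2 mg/ml BSA, 0.5% salmon testes DNA and 0.03% Triton X-100, and protein was detected with Alexa488 anti-GST antibody and a 488 nm scan. Binding intensity is the highest Masliner-normalised natural-log median intensity across replicate spots of either probe orientation.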

Sequence	gcPBM binding intensity (ln)
TTTTGTTACGGCAAGGAAGTTAAGCATAAATGAATG [GTGCAC_negctrl_site173]	8.79 ± 0.5
AAGAAAAAAAATATATATGTATATATTATTTTAACA [TGCATGCA_negctrl_site534]	8.14 ± 0.33
ATATTTTTTGCTATTACACACAAGGGATTATTATTT [CACACA_site7776]	8.75 ± 0.44
ATGTTAATAACTTGTGGTACTGTTATAATTTAGTAA [XGTACX_site2114]	8.4 ± 0.42
TAATAATAGTCTAATACATGCATCGATAACGGAACT [TGCATGCA_site98]	8.95 ± 0.34
TATATACACATATATACACACACATATATATATATA [CACACA_site9127]	9.88 ± 0.45
ATATAAGTGTATCTAACACACAAATATGTAAAAATG [CACACA_site7006]	8.56 ± 0.37
ATATATCTACTGTGTTGTACTGTTAATATTTGAATA [XGTACX_site1931]	8.68 ± 0.43
ATAGAATAAATTTTGTCATTTATTCCTTATATATAA [GTGCAC_negctrl_site227]	8.47 ± 0.36
TAAAAATAGGAATACGCACACGATGATTAATTTATA [CACACA_site1835]	8.29 ± 0.45
AATTATATAACAAATTGTACGAATGAAAATATTATT [XGTACX_site4237]	8.68 ± 0.47
TTCCTTTTTTTTTATTGTACAAAAATATCAAAAAGG [XGTACX_site8505]	8.44 ± 0.42
ATTTTTTTTTTTTTTTTGGGGGGGTATACTTTTAAA [CACACA_negctrl_site1020]	11.2 ± 0.18
TTTTTAATTTTATATACACACATAAAATATATGAAG [CACACA_site3145]	8.32 ± 0.36
TTTATATATATTTATACACACAAACATAATACTACT [CACACA_site5161]	8.55 ± 0.4
TATAATGAGGATGATAGTACGTATTAGTATAAAAAA [XGTACX_site6623]	8.8 ± 0.4
AATTTATAAGAATAAAGTACTAAAGATACAACTTTA [XGTACX_site7153]	8.03 ± 0.25
ATAATACCCAAGCACACACACACACCGATATATATA [CACACA_site8344]	8.82 ± 0.52
TGTTATTATAACATTTTTTTCAAAATAGCTTTAGAA [CACACA_negctrl_site266]	8.09 ± 0.52
ATTAAAGGAAGCAAAACATGCAACAGCAATATTGCA [TGCATGCA_site452]	8.79 ± 0.33
ATATATTGGAGCACAACACACACAAGTATATATATG [CACACA_site8435]	8.82 ± 0.6
AAAAAAAAAAAAAAAACATGCACAAATTATAAGTGA [TGCATGCA_site378]	8.82 ± 0.47
ACTACATAATACTATTCACACATTTTTTTTTTTTTT [CACACA_site5794]	8.74 ± 0.43

Sequence	gcPBM binding intensity (ln)
AAAAAAAAATACAAAATAGCAATAAATACACAAACG [GTGCAC_negctrl_site707]	8.85 ± 0.51
AAAAAAAAAAAAAACACACAGAACAATATATAAATA [CACACA_site982]	8.55 ± 0.56
AAAAAATAGAATATAAAAATAAAGGAATTAAATTAA [XGTACX_negctrl_site420]	8.39 ± 0.35
AATTTTTTTTTAATCATGCACACTGTTAAAAGAATA [CACACA_site1240]	8.47 ± 0.16
TTCATATATTTAGGACGTACTTTTATATTACTATAT [XGTACX_site6456]	8.77 ± 0.41
TTTTAAAAATTAAGTGCATGTCCTTATAAAAAAAAA [TGCATGCA_site845]	8.62 ± 0.46
ATATGGAATAATACGCGTACACACATATATATATTA [XGTACX_site307]	8.85 ± 0.38
TCTTGATTATATAGTACTACACATTATAAAAAAATT [XGTACX_site2465]	8.57 ± 0.26
TTTATATCATTACAAGTGCATATCATCATAAATTCT [GTGCAC_site9878]	8.45 ± 0.36
TATATATAAATATATGTGCACTTTTTATATTTATAT	9.06 ± 0.099
TTTTTAAAATTTTTAAAAATATTATGTTAAATATAT [CACACA_negctrl_site415]	8.12 ± 0.47
TATGTATGTTAGTGTGCACACATAAATATTATATAT [CACACA_site9121]	8.81 ± 0.31
ACATATGAAAAATATGCATGCAAATATTATTTAACA [TGCATGCA_site802]	9.93 ± 0.37
ATATATATGTATTTATGTACATATTATTTTTCTTAA [XGTACX_site8169]	8.33 ± 0.24
TTGAAAGAAAATAAAATAAAATAAAATAAAATAAAA [CACACA_negctrl_site859]	8.37 ± 0.37
AAAAAAAAAAAAATCTCACACATAAAGAGATTATGA [CACACA_site4408]	8.1 ± 0.59
AATAAATAAAAATATATATATATAATATACATGTGT [TGCATGCA_negctrl_site369]	8.69 ± 0.44
GGATGTATTTATATGTGTATGTGTTTGGAAATATGT [XGTACX_negctrl_site99]	8.72 ± 0.54
TTTTATTTCAATCCACAAGGGATAAAATAAAGTTTT [CACACA_negctrl_site699]	7.98 ± 0.38
TATAAATTATATATTTGTACGTATATCACATATATA [XGTACX_site7053]	8.4 ± 0.33
TACATGAATATATAAAGAAAAAAAAAAAAACACACA [XGTACX_negctrl_site350]	8.66 ± 0.47
TTCTCATAATTAAATAGTACATATTTTAATAATCAC [XGTACX_site6116]	8.41 ± 0.28
TATATGTTATATTTAACACACATATAAGGTACATAT [CACACA_site612]	8.6 ± 0.27

Sequence	gcPBM binding intensity (ln)
TTTATTGAATAAAATGCACACGCATGCGTTATTTAT [CACACA_site9154]	9.01 ± 0.23
TTTTATAAACAGAGGGGTACGGGAAAAAAAAAAAAA [XGTACX_site1480]	8.7 ± 0.73
TGTTAAAGAGAAAGTACTACACATATTATGTGTTTT [XGTACX_site1435]	8.34 ± 0.35
TTTTTAAACCATGTTGTGCACATTTTTTTTGGATTT	8.95 ± 0.19
TTAAAAAAAATTATTTGTACTTAAAAATTTTATATT [XGTACX_site8751]	8.06 ± 0.26
AGAAAAAAAAAACACACACACACACCGTCAATATAA [CACACA_site7895]	8.53 ± 0.64
AAAATTATATATTATAGTACATAAAATTTTGATATA [XGTACX_site994]	8.39 ± 0.35
TTTGTACCGGCATTTTTTTTTTCTTTTTTTTTCCAA [XGTACX_negctrl_site323]	8.57 ± 0.46
TTAGTTATTATAATTTGTACACAAATGGTAAAGTAT [XGTACX_site2343]	8.54 ± 0.15
TATTAAAAATGTTAAGTGCAAAAATAAAAATTGTGG [GTGCAC_site9854]	8.85 ± 0.099
ATAGATAAATTTACGGGTACTAAAATGGAATATGAA [XGTACX_site8637]	8.97 ± 0.42
ATTCACATATTATCTTTACACACTATATATAAGTTT [CACACA_site8901]	8.74 ± 0.47
TGTGTTCAGTATTGCACACACACAACCAAATAAAAA [CACACA_site379]	8.53 ± 0.37
TATTTTACAATAACAATACACACTATAATATATATA [CACACA_site1391]	8.68 ± 0.28
CATCAAAATGCTACATGTACATATATATAATATATT [XGTACX_site5207]	8.69 ± 0.26
GAAATGAACAAGTGGGTGCGTATTAATTACATATTA	8.88 ± 0.39
AATATATATAAATAAACACACACAAATATAATAAAA [CACACA_site9176]	8.82 ± 0.49
TTTTTAATTTTTTTTAAACACACACCGTACATTCAA [CACACA_site7925]	8.54 ± 0.38
TCATTTTAAATATGTGTGCACGTTATAATTTACACA	8.88 ± 0.25
TATATATATACATATTGTACATATTACATGCTATTA [XGTACX_site1184]	9.085 ± 0.007
CATTTTCATTTTAAGGTGCATTAATATTTATTTTAA [GTGCAC_site9437]	8.81 ± 0.19
TATATACTTTATAAATGTACATATAATGTATTATTT [XGTACX_site7313]	8.34 ± 0.42
CAAATTGGGAAATTTTGTACATATAATAAGGATACC [XGTACX_site7728]	8.79 ± 0.38

Sequence	gcPBM binding intensity (ln)
GATAATGAATGATGCACACTAAAAATATTCTACAAC [CACACA_site3622]	8.71 ± 0.34
CCGTATATTTTATATAGTACTCATCATATATTTTTA [XGTACX_site5560]	8.48 ± 0.36
AAACTCTCTTATATTAAACACACATATATATATGTA [CACACA_site8865]	8.44 ± 0.28
CCTTTATTAAATAAATGTACATATTTTTGTGTTCTT [XGTACX_site2052]	8.59 ± 0.28
AAACAAAAGATATATACACACTAAACATAAAAAAAA [CACACA_site6161]	8.66 ± 0.45
AAAAACTTTTCAAGTAGTACCATATCTACAATAGTA [XGTACX_site8927]	8.18 ± 0.4
AATAAAAATAAAATTGTATATTTTAAATGAAAATAA [CACACA_negctrl_site898]	8.28 ± 0.44
GTTGGTAGGATGTATGGTACACGTAGTATTTTTCTT [XGTACX_site2]	8.77 ± 0.41
TTCAAGATTTATTATACACACATATTAAAATATATA [CACACA_site4479]	8.27 ± 0.26
AATCTATCAAAGTGTACATGCAATAAAAAAAAAAAA [TGCATGCA_site103]	9.01 ± 0.48
AAAAAATTATTATGAACACACATTTATTATATTCAT [CACACA_site1566]	8.03 ± 0.35
AAACATTTTCATTTGACACACATCATATATTTATAT [CACACA_site1794]	8.48 ± 0.61
TTTTTTTTTCCCCCATGTACATAAATAAGTATATCT [XGTACX_site6965]	9.19 ± 0.33
GCGTGCGTGTACTTAACACACATAATATGTATTTAT [CACACA_site1247]	8.4 ± 0.34
TTAATGTACAGACACCCACACACAAACAAATATATA [CACACA_site8888]	8.93 ± 0.65
AAAAGAAAAAAAAGTACACACATGTATATTAAGCGT [CACACA_site5402]	8.88 ± 0.42
CTTTCATTTCTATCTACACACATATTTTTTCCAAGT [CACACA_site2972]	8.88 ± 0.48
AATTATATGAAATAAACACACATATGCAATATTGCA [CACACA_site6988]	8.73 ± 0.37
ATATGTACTATACGCACACACACTCACATATATATA [CACACA_site3239]	9.12 ± 0.32
AAAAATATATATATATATATATATATATTATTTTTT [TGCATGCA_negctrl_site378]	8.59 ± 0.25
